Reference: PubChem BioAssay AID651820 (National Center for Advancing Translational Sciences (NCATS), 2012)
Where “and” joins values, the source holds several entries; their conditions need not be identical. Identical values can stand only once. The campaign covered roughly 340,000 compounds. About 12,000 (3.5%) were called active. Inconclusive means that the source gave no clear call. Such entries were picked first, then a sample of the others. Calls come from the whole dose curve; as a rule, active = well fitted inhibition curve with a large enough effect; inconclusive = small, poorly fitted or top-dose-only effect, or another doubt; inactive = no such curve, though single readings can be large or run the other way. Potencies of inconclusive entries are left out as doubtful fits.

Experiment: qHTS Assay for Inhibitors of Hepatitis C Virus (HCV)
Details: Huh7.5.1 HCVcc-Cre (HCVcc is cell-culture hepatitis C virus) infection, luciferase reporter, 44 h; activity change, negative = inhibition: at 41.8 µM (top of the series) unless noted
Method in brief: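 Cells seeded at 1,000/well and cultured 4 h, then compounds added followed by HCVcc-Cre virus (~0.5 moi). After 44 h further culture, luciferase substrate was added, plates held 15 min at room temperature, and luminescence read for 15 sec.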
% is set by controls: 0 for no effect and ±100 for the full control effect; potency is the fitted concentration of half-maximal effect; tags give direction and shape of the fitted curve.

Structure (SMILES)	activity change, negative = inhibition	Potency
O=c1[nH]c(NCCO)nnc1Cc1ccccc1	inactive: 13.7%	
C(=N\Nc1nncc2ccccc12)/c1ccccn1		active: 3.16 µM
COc1ccccc1CNC(=O)CCS(=O)(=O)c1cccs1	inactive: -5.42%	
COc1ccc(NC(=O)Cn2nc(C(F)(F)F)c3c2CCCC3)c(OC)c1		inconclusive [inhibitor, single point]
CCOC(=O)N1CCC(N2Cc3cccc(C(=O)Nc4ccc(F)cc4)c3C2=O)CC1		inconclusive [inhibitor, single point]
COc1ccc(-c2noc(CCC(=O)NCCCN3CCC(Cc4ccccc4)CC3)n2)cc1		active: 12.6 µM and active: 2.51 µM
C=CCn1cc(C(=O)NCCOC)c(=O)c2cc(S(=O)(=O)N(CC)CC)ccc21		inactive
Cc1nnc(SCC(=O)c2ccc(C(C)C)cc2)s1	inactive: 13.3%	
COc1ccc(OC)c(C(O)C(C)N)c1 (stereo not given)		inactive
O=C(NCCN1CCCCCC1)C1CCC(CNS(=O)(=O)c2cccc3cccnc23)CC1 (stereo not given)	inactive: 3.91%	
CCOC(=O)c1nc(Nc2cc(C)cc(C)c2)c2ccccc2n1		inconclusive [inhibitor, single point]
CCNC(=S)N(Cc1ccco1)Cc1cc2cc(OCC)ccc2[nH]c1=O		inconclusive [inhibitor, single point]
Cc1cc(C)c(S(=O)(=O)n2ccc(-c3ccc(OCCN(C)c4ccccn4)cc3)n2)c(C)c1		inconclusive [inhibitor, partial curve, poor fit]
Nc1nonc1-n1nnc(C(=O)N/N=C/c2cc(Br)ccc2O)c1CNc1ccccc1		active: 10 µM
CC1CCC(NC(=O)c2ccc(CNc3c(NC4CCCCC4)c(=O)c3=O)cc2)CC1 (stereo not given)		inconclusive [inhibitor, single point]
CCN(CC(=O)Nc1c(F)cccc1F)C(=O)COc1cccc2c1OC(C)(C)C2	inactive: 4.16%	
CCc1nc(Nc2ccc(OC)cc2OC)c2oc3ccccc3c2n1		inconclusive [inhibitor, partial curve]
Cc1ccnc(N2CCN(C(=O)CSc3nc4ccccc4nc3N3CCC(C)CC3)CC2)c1		inconclusive [inhibitor, partial curve]
CCCCc1c(C)c(C#N)c2nc3ccccc3n2c1Nc1c(C)n(C)n(-c2ccccc2)c1=O		inconclusive [inhibitor, partial curve]
Cc1cc(C)c2c(CN3CCN(Cc4ccccc4)CC3)cc(=O)oc2c1		inconclusive [inhibitor, partial curve]
COc1ccc(/C=N/OCC(=O)Nc2ccc3c(c2)OCO3)c(OC)c1		inconclusive [inhibitor, single point]
Cc1ccc(S(=O)(=O)CC(=O)Nc2sc(C)c(C)c2C(N)=O)cc1	inactive: 14.2%	
N=c1n(CCN2CCCC2)c2ccccc2n1CC(O)c1ccco1 (stereo not given)		inconclusive [inhibitor, full curve]

Structure (SMILES)	activity change, negative = inhibition	Potency
Cc1ccccc1Oc1nc2ccccn2c(=O)c1/C=C(\C#N)C(=O)Nc1c(C)n(C)n(-c2ccccc2)c1=O	inactive: 12.4%	
NS(=O)(=O)c1cccc(NC(=O)c2cccc(S(=O)(=O)N3CCCCCC3)c2)c1		inconclusive [inhibitor, single point]
COc1ccc(-c2noc(C3CCCN(S(=O)(=O)c4cccc(Cl)c4C)C3)n2)cc1OC (stereo not given)		inconclusive [inhibitor, single point]
COc1cc([N+](=O)[O-])ccc1NC(=O)Nc1cnccn1		inconclusive [inhibitor, full curve]
O=C(CCl)Nc1cc(SCC(O)CO)cc([N+](=O)[O-])c1 (stereo not given)		active: 1.58 µM
O=C1CN(C(=O)COC(=O)c2ccc([N+](=O)[O-])o2)c2ccccc2N1		inconclusive [inhibitor, single point]
CCc1c(C(=O)NNC(=O)Nc2ccc3c(c2)OCO3)csc1C	inactive: 7.79%	
CCOC(=O)C1CCN(CC(O)COc2ccc(C(=O)CC)cc2)CC1 (stereo not given)		inconclusive [inhibitor, single point]
Cc1ccc(CN2C3CCCC2CC(NC(=O)c2ccc(C)cc2)C3)cc1 (stereo not given)		active: 31.6 µM
COC(=O)c1c(NC(C)=O)sc(C(=O)Nc2ccccc2F)c1C		inconclusive [inhibitor, partial curve]
Cc1ccc(Nc2nc(NCC3CCCO3)nc(N)c2[N+](=O)[O-])cc1 (stereo not given)		inconclusive [inhibitor, single point]
C=CCn1c(=O)[nH]c2cc(C(=O)N3CC=C(c4ccccc4)CC3)ccc2c1=O	inactive: -4.26%	
O=C(NC1CCCCC1)c1ccc(-c2ccccc2[N+](=O)[O-])o1		inconclusive [inhibitor, single point]
CSc1nc(N)nc(SCC(=O)C23CC4CC(CC(C4)C2)C3)c1C#N		active: 10 µM
Cc1nn(Cc2ccc(Cl)cc2)c(C)c1NC(=O)c1cc(-c2ccco2)on1		inconclusive [inhibitor, partial curve]
CCOc1cccc2sc(=NC(=O)CCS(=O)(=O)c3ccc(F)cc3)n(C)c12		inconclusive [inhibitor, single point]
N#C/C(=C\c1cccs1)Sc1nc2ccccc2s1		inconclusive [inhibitor, full curve, poor fit]
O=C(COC(=O)c1cc(-c2cccc(Br)c2)nc2ccccc12)NCC1CCCO1 (stereo not given)	inactive: 10.2%	
Cc1cccc(C)c1OCC(=O)N/N=C/c1cccn1C		inconclusive [inhibitor, single point]
CCc1c(C)sc(NC(=O)c2cccs2)c1C(N)=O		inconclusive [inhibitor, partial curve]
CCN(CC(=O)NCc1cccs1)C(=O)c1ccc(-c2cccc(C(F)(F)F)c2)o1		inconclusive [inhibitor, partial curve]
COc1cc(/C=N/NC(=Nc2ccc(C)cc2)c2nc3ccccc3s2)ccc1O		inconclusive [inhibitor, partial curve]
